The results in this text go back to the supplement of paper PMC11283458.

SMILES strings stand for the structures. The list shows a part of the results. Repeats are few or missing, and single values can be far off.
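For B-score of Nano/Firefly luminescence ratio, V2 Mef2d microexon reporter in this document: compounds at 4 µM (PKI library 0.5 µM) on Dox-inducible N2A Flp-In cells with PEST-tagged luciferases, 384-well plates, B-score from per-plate median-polish residual over median absolute residual.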

The subject of one test is Mef2d microexon dual Nano/Firefly luciferase splicing reporter in Neuro-2a cells. Nature of the test: B-score of Firefly/Nano luminescence ratio, V1 Mef2d microexon reporter (B-score (plate-normalised)); higher = more Mef2d microexon inclusion. The note with it: 24 h.
With `Cc1nc2sccn2c1-c1csc(Nc2ccc(N(C)C)cc2)n1` (4 µM), the B-score was -8.33.
On the same count and under the same terms, with `CCS(=O)(=O)Nc1ccc2c(c1)/C(=C(/Nc1ccc(CN3CCCCC3)cc1)c1ccccc1)C(=O)N2` [Hesperadin] (0.5 µM) the figure was -1.65; with `COc1ccc(/C(C#N)=C/c2ccc3c(c2)OCO3)cc1OC` (4 µM), -2.4; with `O=C(Oc1c(CN2CCOCC2)cc(Cl)c2cccnc12)c1ccc([N+](=O)[O-])cc1` (4 µM), -1.93.
Regarding `Cc1cc(Sc2nnc(N=CN(C)C)s2)c2ccccc2n1` (4 µM), the B-score was -2.12.
Turning to `C[N+]1(C)CCC(OC(=O)C(O)(c2ccccc2)C2CCCC2)C1.[Br-]` (stereo not given) (4 µM), the B-score came out at 7.22.
Same read-out and setting: the value for `S=C(S)N1CCCC1` [Ammonium pyrrolidinedithiocarbamate] (4 µM) was 3.67; that for `O=C(Cn1nnc(N2CCOCC2)n1)NNC(=S)Nc1ccc(F)cc1F` (4 µM) was 8.21; that for `Cn1cc(-c2cnn3c(N)c(Br)c([C@@H]4CCCNC4)nc23)cn1` (0.5 µM) was -5.07.
Still for that read-out and setting: with `CC(C)(C)c1ccc(N2CC(C(=O)O)CC2=O)cc1` (stereo not given) (4 µM) the figure was 1.35.
On the same count and under the same terms, with `CC(C)[C@H](CO)Nc1nc(Nc2cccc(Cl)c2)c2ncn(C(C)C)c2n1` [Purvalanol A] (4 µM) the figure was 3.3; with `COc1cccc(-c2cc(C(=O)NC3CCCc4ccccc43)[nH]n2)c1` (stereo not given) (4 µM), -3.82; with `N#Cc1ccc2c(c1)/C(=C\c1ccccc1[N+](=O)[O-])C(=O)N2` (4 µM), -4.66.
For the compound `Cc1ccc(C(=O)C=CSc2nc(C)cc(C)n2)cc1` (4 µM), the B-score was -0.712.
Still for that read-out and setting: with `NC(=O)c1ccsc1NC(=O)COC(=O)c1ncc(Cl)c(Cl)c1Cl` (4 µM) the figure was -4.07; with `Cc1cc(C)n(-c2ccc([N+](=O)[O-])cc2)n1` (4 µM), -0.754; with `CC(C)/N=c1\cc2n(-c3ccc(Cl)cc3)c3ccccc3nc-2cc1Nc1ccc(Cl)cc1` [Clofazimine] (4 µM), 7.8.
The same measure, in the same setting: the value for `O=C(Nc1ccc(-n2nc(C(F)(F)F)cc2-c2cccs2)cc1)c1ccccc1` (4 µM) was 6.63; that for `CC(=O)N[C@H]1[C@H](O[C@H]2CC[C@@]3(C)C(CC[C@]4(C)C3CC=C3C5CC(C)(C)C[C@@H](C(=O)O)C5CC[C@]34C)C2(C)C)O[C@H](CO)[C@@H](O)[C@@H]1O` (stereo not given in full) (4 µM) was 7.19.
Same read-out and setting: with `O=C(Nc1ccc(Cl)c(Cl)c1)n1ccc(C(F)(F)F)n1` (4 µM) the figure was 15.6; with `O=C(Nc1ccccc1)ON=C1CC2CCCC(C1)N2Cc1ccccc1` (4 µM), 14.4; with `CCn1c(-c2ccccc2)c(C(=O)CN2C(=O)NC(C)(C3CC3)C2=O)c2ccccc21` (stereo not given) (4 µM), 2.24.
Turning to `CC(C)(C)c1ccc(C(=O)ONC(=O)c2ccc(Cl)c(Cl)c2)cc1` (4 µM), the B-score was 8.42.
In the case of `S=C(NCc1cccnc1)SCc1cc(Cl)sc1Cl` (4 µM), the B-score is -0.169.
Same read-out and setting: with `c1ccc(C2=Nc3ccccc3NC(c3ccccc3)C2)cc1` (stereo not given) (4 µM) the figure was 2.78; with `Cc1cccc(N2CCN(C(=O)c3cc(F)cc(F)c3)CC2C)c1` (stereo not given) (4 µM), -3.22.
Take `COc1ccc(/C(N)=N/OC(=O)c2c(-c3ccccc3Cl)noc2C)cc1OC` (4 µM): the B-score amounted to 4.32.
`O=[N+]([O-])c1ccc(N2CCCN(C(=S)Nc3ccc(Cl)cc3Cl)CC2)nc1` (4 µM): the B-score was -2.91.
In the case of `CCn1ncc(C2=NOC(C(=O)NCc3ccc(Cl)cc3)C2)c1C` (stereo not given) (4 µM), the B-score is -2.79.
Same read-out and setting: the value for `Cc1onc(-c2ccccc2Cl)c1C(=O)ON=C1C2CC3CC(C2)CC1C3` (4 µM) was 9.21.
Turning to `COC(=O)c1ccccc1NC(=O)Cc1coc2cc(C)cc(C)c12` (4 µM), the B-score is -9.25.
The same measure, in the same setting: with `N#CC1=C(Nc2ccccc2Cl)SC(c2c(Cl)cccc2Cl)NC1=O` (stereo not given) (4 µM) the figure was -2.7; with `O=S(=O)(NC(=S)Nc1ccc(Cl)c(Cl)c1)c1ccccc1` (4 µM), 2.27.
On the same count and under the same terms, the value for `Fc1c(CSC2=NCCN2)cccc1CSC1=NCCN1` (4 µM) was 3.75; that for `C[C@@H](Oc1cc(-n2cnc3ccc(CN4CCN(C)CC4)cc32)sc1C(N)=O)c1ccccc1C(F)(F)F` (0.5 µM) was -5.46.
The same measure, in the same setting: with `NC(CSc1ccc(Cl)cc1)=NOC(=O)c1ccc(C(F)(F)F)cc1` (4 µM) the figure was 0.759; with `C=Cc1nc2c(cnn2-c2ccccc2)c(=O)[nH]1` (4 µM), -1.83; with `Cc1cc(Nc2nc(N[C@@H](C)c3ccc(F)cc3)c(C#N)cc2F)n[nH]1` (0.5 µM), 5.
Consider `CN1CCc2nc(NC(=O)c3csc(COc4ccc(Cl)cc4)n3)sc2C1` (4 µM), for which the B-score is -1.76.
Still for that read-out and setting: with `Cc1ccc(Oc2c([N+](=O)[O-])cc(C(F)(F)F)cc2[N+](=O)[O-])c(C)c1` (4 µM) the figure was 8.26.

The next test has the same test system. The experiment in a line: B-score of Nano/Firefly luminescence ratio, V2 Mef2d microexon reporter (B-score (plate-normalised)); higher = more Mef2d microexon inclusion. The conditions noted are these: 24 h.
As to `Cc1nc2sccn2c1-c1csc(Nc2ccc(N(C)C)cc2)n1` (4 µM), the B-score was -9.22.
In the case of `CCS(=O)(=O)Nc1ccc2c(c1)/C(=C(/Nc1ccc(CN3CCCCC3)cc1)c1ccccc1)C(=O)N2` [Hesperadin] (0.5 µM), the B-score is -7.21.
As to `COc1ccc(/C(C#N)=C/c2ccc3c(c2)OCO3)cc1OC` (4 µM), the B-score was -9.47.
Still for that read-out and setting: the value for `O=C(Oc1c(CN2CCOCC2)cc(Cl)c2cccnc12)c1ccc([N+](=O)[O-])cc1` (4 µM) was 34.6; that for `Cc1cc(Sc2nnc(N=CN(C)C)s2)c2ccccc2n1` (4 µM) was -11.
The same measure, in the same setting: with `C[N+]1(C)CCC(OC(=O)C(O)(c2ccccc2)C2CCCC2)C1.[Br-]` (stereo not given) (4 µM) the figure was 3.73.
Same read-out and setting: the value for `S=C(S)N1CCCC1` [Ammonium pyrrolidinedithiocarbamate] (4 µM) was 37.4.
`O=C(Cn1nnc(N2CCOCC2)n1)NNC(=S)Nc1ccc(F)cc1F` (4 µM): the B-score worked out at 0.471.
Still for that read-out and setting: with `Cn1cc(-c2cnn3c(N)c(Br)c([C@@H]4CCCNC4)nc23)cn1` (0.5 µM) the figure was -2.58; with `CC(C)(C)c1ccc(N2CC(C(=O)O)CC2=O)cc1` (stereo not given) (4 µM), 19.7.
Consider `CC(C)[C@H](CO)Nc1nc(Nc2cccc(Cl)c2)c2ncn(C(C)C)c2n1` [Purvalanol A] (4 µM), for which the B-score is 13.2.
Still for that read-out and setting: the value for `COc1cccc(-c2cc(C(=O)NC3CCCc4ccccc43)[nH]n2)c1` (stereo not given) (4 µM) was -5.71.
As to `N#Cc1ccc2c(c1)/C(=C\c1ccccc1[N+](=O)[O-])C(=O)N2` (4 µM), the B-score is -17.2.
Turning to `Cc1ccc(C(=O)C=CSc2nc(C)cc(C)n2)cc1` (4 µM), the B-score was -6.23.
For the compound `NC(=O)c1ccsc1NC(=O)COC(=O)c1ncc(Cl)c(Cl)c1Cl` (4 µM), the B-score is -1.46.
As to `Cc1cc(C)n(-c2ccc([N+](=O)[O-])cc2)n1` (4 µM), the B-score is 23.2.
As for `CC(C)/N=c1\cc2n(-c3ccc(Cl)cc3)c3ccccc3nc-2cc1Nc1ccc(Cl)cc1` [Clofazimine] (4 µM), the B-score is 2.7.
On the same count and under the same terms, with `O=C(Nc1ccc(-n2nc(C(F)(F)F)cc2-c2cccs2)cc1)c1ccccc1` (4 µM) the figure was 3.56; with `CC(=O)N[C@H]1[C@H](O[C@H]2CC[C@@]3(C)C(CC[C@]4(C)C3CC=C3C5CC(C)(C)C[C@@H](C(=O)O)C5CC[C@]34C)C2(C)C)O[C@H](CO)[C@@H](O)[C@@H]1O` (stereo not given in full) (4 µM), 11.6.
The same measure, in the same setting: with `O=C(Nc1ccc(Cl)c(Cl)c1)n1ccc(C(F)(F)F)n1` (4 µM) the figure was -0.001; with `O=C(Nc1ccccc1)ON=C1CC2CCCC(C1)N2Cc1ccccc1` (4 µM), 6.57.
For the compound `CCn1c(-c2ccccc2)c(C(=O)CN2C(=O)NC(C)(C3CC3)C2=O)c2ccccc21` (stereo not given) (4 µM), the B-score was 6.16.
Still for that read-out and setting: with `CC(C)(C)c1ccc(C(=O)ONC(=O)c2ccc(Cl)c(Cl)c2)cc1` (4 µM) the figure was 2.8; with `S=C(NCc1cccnc1)SCc1cc(Cl)sc1Cl` (4 µM), -8.36; with `c1ccc(C2=Nc3ccccc3NC(c3ccccc3)C2)cc1` (stereo not given) (4 µM), 1.02.
`Cc1cccc(N2CCN(C(=O)c3cc(F)cc(F)c3)CC2C)c1` (stereo not given) (4 µM): the B-score is -7.
For the compound `COc1ccc(/C(N)=N/OC(=O)c2c(-c3ccccc3Cl)noc2C)cc1OC` (4 µM), the B-score was 4.47.
For the compound `O=[N+]([O-])c1ccc(N2CCCN(C(=S)Nc3ccc(Cl)cc3Cl)CC2)nc1` (4 µM), the B-score was -4.72.
The same measure, in the same setting: with `CCn1ncc(C2=NOC(C(=O)NCc3ccc(Cl)cc3)C2)c1C` (stereo not given) (4 µM) the figure was -7.27; with `Cc1onc(-c2ccccc2Cl)c1C(=O)ON=C1C2CC3CC(C2)CC1C3` (4 µM), 3.09.
Turning to `COC(=O)c1ccccc1NC(=O)Cc1coc2cc(C)cc(C)c12` (4 µM), the B-score was -10.
With `N#CC1=C(Nc2ccccc2Cl)SC(c2c(Cl)cccc2Cl)NC1=O` (stereo not given) (4 µM), the B-score is -4.24.
For the compound `O=S(=O)(NC(=S)Nc1ccc(Cl)c(Cl)c1)c1ccccc1` (4 µM), the B-score turned out to be 9.04.
In the case of `Fc1c(CSC2=NCCN2)cccc1CSC1=NCCN1` (4 µM), the B-score was found to be 0.953.
In the case of `C[C@@H](Oc1cc(-n2cnc3ccc(CN4CCN(C)CC4)cc32)sc1C(N)=O)c1ccccc1C(F)(F)F` (0.5 µM), the B-score is -3.97.
With `NC(CSc1ccc(Cl)cc1)=NOC(=O)c1ccc(C(F)(F)F)cc1` (4 µM), the B-score was found to be 23.6.
Regarding `C=Cc1nc2c(cnn2-c2ccccc2)c(=O)[nH]1` (4 µM), the B-score is -5.32.
The same measure, in the same setting: the value for `Cc1cc(Nc2nc(N[C@@H](C)c3ccc(F)cc3)c(C#N)cc2F)n[nH]1` (0.5 µM) was 6.58; that for `CN1CCc2nc(NC(=O)c3csc(COc4ccc(Cl)cc4)n3)sc2C1` (4 µM) was -6.55.
The same measure, in the same setting: the value for `Cc1ccc(Oc2c([N+](=O)[O-])cc(C(F)(F)F)cc2[N+](=O)[O-])c(C)c1` (4 µM) was 1.78.
